# Test results from the supplement of paper PMC12217912.
# Some of the results follow. Sequences were assembled here from the parent chain. Inactive controls read about 0.05.
# B1: TEV protease; numbered along this chain (parent)
# chain: MGESLFKGPRDYNPISSSICHLTNESDGHTTSLYGIGFGPFIITNKHLFRRNNGTLVVQSLHGVFKVKDTTTLQQHLVDGRDMIIIRMPKDFPPFPQKLKFREPQREERICLVTTNFQTKSMSSMVSDTSCTFPSGDGIFWKHWIQTKDGQCGSPLVSTRDGFIVGIHSASNFTNTNNYFTSVPKNFMELLTNQEAQQWVSGWRLNADSVLWGGHKVFMVKPEEPFQPVKEATQL
# Variants of: B1
# Test: raw area under fraction-flipped curve 0-4 h after induction (AUC4h, not background-subtracted), DNA-recorder readout of cleavage of the substrate (dimensionless); higher = more cleavage of the substrate by the protease variant
# Details: temperature: 34 °C; time window: 0-4 h after rhamnose induction
# Experimental: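 In vivo DNA recorder in E. coli TOP10(DE3) ΔrhaA at 34 °C. Each TEVp single-site mutant (parent TEVp 0) is paired with a single-site variant of the 7-mer TEVs (canonical ENLYFQ|S). The substrate sits between flexible linkers in a Bxb1-sfGFP-TEVs-SsrA fusion, so cleavage stabilises Bxb1 and speeds flipping of a recombination array, read by NGS. The value is the raw area under the fraction-flipped curve over 0-4 h after rhamnose induction (AUC4h), with ≥20 reads per time point. It is not background-subtracted; inactive controls average about 0.047.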
# 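Further: Bxb1 expression induced with 0.2% (w/v) L-rhamnose at OD600 near 0.5, cultures sampled hourly, flipped fraction per protease–substrate barcode pair counted by paired-end Illumina sequencing.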
Variant,area with substrate ENLDFQS,area with substrate ENLEFQS,area with substrate ENLFFQS,area with substrate ENLGFQS,area with substrate ENLLFQS,area with substrate ENLNFQS,area with substrate ENLQFQS,area with substrate ENLSFQS,area with substrate ENLTFQS,area with substrate ENLWFQS
Y179H,0.073,0.0721,0.0628,0.0613,0.0522,0.055,0.0587,0.0658,0.0752,0.0564
A232D,0.0515,–,0.0862,–,–,0.0464,0.0691,0.0596,–,0.0958
F101A,–,0.0568,0.0546,0.0613,–,0.0581,0.0581,0.0524,–,–
L61I,–,0.0614,0.0721,–,0.0788,0.0715,0.0562,–,–,–
E231K,–,–,–,0.07,–,0.072,–,0.0782,–,–
E231D,0.0873,–,–,–,0.0823,0.0749,–,–,0.0729,0.0755
L73A,–,0.0916,0.0624,–,–,0.0627,–,0.0396,–,–
L73M,–,–,0.0645,–,0.0666,–,0.0637,–,–,0.0596
T72W,–,–,0.0775,0.0651,–,0.0654,–,0.0587,0.0454,0.0556
I36G,–,0.0389,0.0434,–,–,0.0278,0.0467,–,–,–

# Same assay, conditions: temperature: 34 °C; time window: 0-4 h after rhamnose induction
Variant,area with substrate ENLHFQS,area with substrate ENLIFQS,area with substrate ENLKFQS,area with substrate ENLRFQS,area with substrate ENLVFQS,area with substrate ENLMFQS,area with substrate ENLPFQS
A232D,0.0664,0.0991,0.062,0.0788,–,–,–
F101A,–,0.0626,0.0575,–,0.0531,–,–
L61I,0.0909,0.0938,–,0.117,–,–,–
E231K,0.0698,0.0803,0.0808,–,–,–,–
E231D,0.0585,–,0.0846,–,–,–,–
L73A,0.0651,–,0.0734,0.0469,–,–,–
L73M,0.0642,0.0826,0.0819,0.0588,0.0562,–,–
T72W,0.0595,–,0.075,0.0715,–,0.0666,–
I36G,–,–,0.0556,–,–,–,0.0414
